Article PMC6919601, “Identification of Plasmodium dipeptidyl aminopeptidase allosteric inhibitors by high throughput screening” (PLoS ONE, 2019)
Among all 110,000 compounds or so, about 230 (0.21%) showed an effect of 50% or more. This is one part of the list.

Target: DPAP1 (Plasmodium falciparum, UniProt Q8IIJ9)
Experiment: primary screen, percent inhibition; read by cleavage of a fluorogenic dipeptide substrate; higher = more effect of the substance
Design: species or system P. falciparum D10 trophozoite lysates; single well
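Also: 30 min substrate incubation versus DMSO and 10 µM JCP410 controls.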

Chain of DPAP1 (Q8IIJ9 whole entry, looked up): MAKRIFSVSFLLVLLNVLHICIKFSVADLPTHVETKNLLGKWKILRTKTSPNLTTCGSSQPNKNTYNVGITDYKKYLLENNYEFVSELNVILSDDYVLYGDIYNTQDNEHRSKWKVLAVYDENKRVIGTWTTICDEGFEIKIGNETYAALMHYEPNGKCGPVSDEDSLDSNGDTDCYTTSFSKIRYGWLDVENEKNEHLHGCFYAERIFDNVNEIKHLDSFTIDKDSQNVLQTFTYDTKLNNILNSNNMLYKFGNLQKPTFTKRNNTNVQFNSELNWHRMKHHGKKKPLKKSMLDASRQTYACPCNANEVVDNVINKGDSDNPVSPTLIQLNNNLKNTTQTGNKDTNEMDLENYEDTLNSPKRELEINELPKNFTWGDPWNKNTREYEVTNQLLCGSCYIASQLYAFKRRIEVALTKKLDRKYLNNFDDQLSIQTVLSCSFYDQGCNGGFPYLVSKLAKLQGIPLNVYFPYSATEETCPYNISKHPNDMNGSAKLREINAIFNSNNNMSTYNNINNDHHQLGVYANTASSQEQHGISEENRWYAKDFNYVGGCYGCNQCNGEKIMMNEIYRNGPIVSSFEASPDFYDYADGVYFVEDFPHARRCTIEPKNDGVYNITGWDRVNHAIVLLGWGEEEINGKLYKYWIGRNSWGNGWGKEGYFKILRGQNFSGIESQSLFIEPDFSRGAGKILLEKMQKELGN

SMILES | % Inhibition @ 10 uM [%]
O=C(c1cc2cc(Br)cc(Br)c2oc1=O)N1CCCCCC1 | -0.261
CCCCN1C(=O)NC(NC(=O)c2cccc(Cl)c2)(C(F)(F)F)C1=O (centres unmarked) | -0.173
COc1cc(OC)cc(C(=O)N2CCN(C3CCCC3)CC2)c1 | 0.392
CCOc1ccccc1CNC(=O)CSc1nnc(C)c2c(C)n(-c3ccc(Cl)cc3)nc12 | -0.165
O=C(C1CCCO1)N1N=C(c2ccc(Br)cc2)CC1c1ccco1 (centres unmarked) | 5.03
CCCS(=O)(=O)N1CCC(C(=O)Nc2ccc(C)cc2)CC1 | 0.361
COc1ccc2c(C)c(C(=O)O)oc2c1 | -3.65
CCOc1ccc(S(=O)(=O)Nc2ccc(S(=O)(=O)Nc3cccc4ccccc34)cc2)cc1 | -11
O=C(c1ccc(CNS(=O)(=O)c2cccc(C(F)(F)F)c2)cc1)N1CCCCC1 | 4.57
COc1ccc(C(=O)Nc2ccc(C)c(F)c2)cc1 | -5.23
CC1CCCN(C(c2ccc(F)cc2)c2c(O)nc(O)nc2O)C1 (centres unmarked) | -4.03
O=C(CCCOc1ccccc1)Nc1cc(Cl)cc(Cl)c1 | -1.63
CC(=O)N1CC(=O)N(OCc2ccccc2)C1c1ccc(Cl)cc1Cl (centres unmarked) | 1.25
O=C(NCCCN1CCN(Cc2ccccc2)CC1)c1nnc(Cc2ccc3c(c2)OCO3)o1 | 3
O=C1CC(c2ccsc2)c2c(O)nc3nc4ccccc4n3c2N1 (centres unmarked) | 1.84
Cc1ccccc1-c1nc2s/c(=C\c3cccs3)c(=O)n2n1 | -2.98
Cc1ccc(CNC(=O)CN(Cc2ccccc2)S(=O)(=O)c2ccc3nc(C)sc3c2)cc1 | -1.74
COc1ccc(OC)c(CN2CCN(Cc3ccc(C)cc3)CC2)c1 | 13.5
COc1ccc(CNC(=O)CN(c2cccc(F)c2)S(C)(=O)=O)cc1 | 9.94
COc1ccc(C(=O)Cn2c(=N)n(Cc3ccc(C)cc3)c3ccccc32)cc1 | -5.69
COc1ccc(-[n+]2c(=O)c(Cc3ccccc3)c(O)n3nc(-c4ccccc4)c(O)cc32)cc1 | 2.42
CCN(CC)S(=O)(=O)c1cc(C(=O)O)ccc1Cl | -0.546
CC(C)(C)C(=O)/N=C(\N)Nc1nc2ccccc2s1 | 2.26
N#CC1=C(N)OC2=C(C(=O)CC(c3ccccc3)C2)C1c1ccc(Cl)cc1 (centres unmarked) | 3.1
Cc1ccc2nc(NC(C)C34CC5CC(CC(C5)C3)C4)c3nnnn3c2c1 (centres unmarked) | -4.66
O=C(COc1ccc(C(=O)Nc2cccc(C(F)(F)F)c2)cc1)NCc1ccccc1 | -2.09

SMILES | % Inhibition @ 10 uM [%]
CSc1nnc(-c2ccc(C)cc2)o1 | 9.47
COc1ccccc1C1NC(=O)c2[nH]nc(-c3ccc(C)cc3)c21 (centres unmarked) | 3.53
CSc1nc2c(c(=O)n1C)C1(CCCCC1)Cc1ccccc1-2 | -3.77
Brc1ccccc1CN1CCC(N2CCCCC2)CC1 | -5.31
CC1CCc2nc(N)c(C#N)c(-c3ccncc3)c2C1 (centres unmarked) | -1.33
Cc1cc(NC(=O)COc2ccccc2C)no1 | 0.189
Cc1sc(Nc2cccc3ccccc23)nc1-c1ccc(Cl)cc1 | -1.74
COc1ccc(C(=O)Nc2ccc(NC(C)=O)cc2)cc1Br | -2.83
Cc1c(C(=O)N2CCc3ccccc32)cccc1[N+](=O)[O-] | 2.22
CC(C)=C1C2CCC1C1C(=O)N(CCc3ccccc3)C(=O)C21 (centres unmarked) | 0.82
CCOc1ccc(C2(O)C[N+](c3ccc(C)cc3)=C3CCCCCN32)cc1 (centres unmarked) | -1.4
CSc1ccc(CCNC(=O)CN2C(=O)C(c3ccccc3)Oc3cccnc32)cc1 (centres unmarked) | 0.676
Cc1ccc(-c2cn3c(n2)sc2cc(C(=O)N4CCN(c5ccccn5)CC4)ccc23)cc1 | 26.2
CCOc1ccc(CN2CCC(O)CC2)cc1 | 3.16
CC(C)(C)c1ccc(S(=O)(=O)NC(=O)C23CC4CC(CC(C4)C2)C3)cc1 | -3.27
COc1cc(CNC2CCC(C)C2)cc(OC)c1 (centres unmarked) | -2.34
COc1cccc(C(N)CC(=O)O)c1 (centres unmarked) | 0.0345
CCOc1ccc(N2C(=O)C(C)SC23C(=O)N(CN2CCCCC2)c2ccccc23)cc1 (centres unmarked) | -3.04
CCOCCCNc1ncc2c(n1)CC(c1ccc(C)cc1)CC2=O (centres unmarked) | -9.34
COc1ccccc1CCNC(=O)c1cnc2cc(C)ccn2c1=O | -5.27
Cc1ccc(-c2cc(NC(=O)COc3ccc(C(C)(C)C)cc3)on2)cc1 | -1.47
CCCOc1ccc(CNC(=O)Nc2cccs2)cc1 | 0.596
Fc1ccc(C2=NCCn3cccc32)cc1 | 5.37
CCOC(=O)C1=C(CS(=O)(=O)c2ccc(F)c(C)c2)NC(=O)NC1c1cc(OC)ccc1OC (centres unmarked) | -3.94
C=CCON1C(=O)C(C)(C)N(OCC=C)C(=O)C1(C)C | -2.68
Cc1ccsc1C1NC(=O)c2c(sc3c2CCCC3)N1 (centres unmarked) | 18.2

SMILES | % Inhibition @ 10 uM [%]
Cc1ccc(S(=O)(=O)Nc2ccc(NC(=O)C3C4C=CC(O4)C3C(=O)O)cc2)cc1 (centres unmarked) | 1.59
O=C(CCC(=O)NC1CCCCCC1)Nc1nc(-c2cc3cc(Cl)ccc3oc2=O)cs1 | 2.4
CS(=O)(=O)N1CCn2c1nc1ccccc12 | -1.43
Cc1ccc(C)c(N2C(=O)C3CC=CCC3C2=O)c1 (centres unmarked) | 3.44
COc1cc(CN2CCN(C(=O)c3cc(OC)c(OC)c(OC)c3)CC2)cc(OC)c1 | -1.1
Cc1ccc(CS(=O)(=O)Cc2ccc(C(=O)NCCCOC(C)C)o2)cc1 | -2.99
CCCCNC(=O)c1c(NC(C)=O)sc2c1CCCC2 | -3.92
COC(=O)c1ccc(C2/C(=C(/O)OCc3ccccc3)C(C)=Nc3ncnn32)cc1 (centres unmarked) | 1.26
CCCOc1ccc(C2C(C(=O)c3ccc(C)cc3)=C(O)C(=O)N2Cc2ccco2)cc1 (centres unmarked) | 0.161
CCOC(=O)c1[nH]c2ccccc2c1NC(=O)c1ccccc1C | -1.29
CCOCCCn1c(=N)c(S(=O)(=O)c2ccc(Cl)cc2)cc2c(=O)n3ccccc3nc21 | -1.52
O=CN1CCN(Cc2ccccc2C(F)(F)F)CC1 | -7.35
Cc1cccc(CCNC(=O)c2cccc3c2C(=O)N(C2CCCCC2)C3)c1 | 2.9
Cc1cccc2sc(NC(=O)c3ccc(Br)o3)nc12 | -3.92
Cc1ccc(NC(=O)c2cccc(S(=O)(=O)Nc3cccc(C(=O)O)c3)c2)cc1 | 1.63
c1ccc(CNc2cc(-c3ccccc3)nc(-c3ccccc3)n2)cc1 | 6.6
Cc1ccc2c(c1)C(=O)N(c1ccc(O)cc1)C2=O | 1.89
CC(C)C(C(=O)O)N1C(=O)C2C3C=CC(C2C1=O)C1C(=O)N(C(C(=O)O)C(C)C)C(=O)C31 (centres unmarked) | 4.17
CN(Cc1ccco1)C(CNS(=O)(=O)c1ccccc1)c1ccccc1 (centres unmarked) | -0.671
CCOC(=O)C(C(N)=O)c1nc(-c2ccccc2)cc(-c2ccccc2)n1 (centres unmarked) | -0.949
CC(=O)c1c(O)cc(C)o/c1=N\c1ccc(C)cc1C | -1.64
c1ccc(N2CCN(Cc3cccnc3)CC2)cc1 | -4.35
CCOc1ccc(C(=O)Nc2ccccc2C(N)=O)cc1 | 4.3
CCc1nnc(NC(=O)CSc2nnc(NC(C)=O)s2)s1 | 29.2
Cn1c(C(N)=O)cc2ccccc21 | 1.63
CCOC(=O)c1sc2cccc(F)c2c1N | -3.78

SMILES | % Inhibition @ 10 uM [%]
Cc1ccc(S(=O)(=O)N(CC(=O)NCC2CCCO2)c2cccc(Br)c2)cc1 (centres unmarked) | 8.19
Cc1ccc(NC(=O)c2ccccc2N(C)S(C)(=O)=O)cc1C | 1.94
COC(=O)c1ccc(NC(=O)c2ccc(Br)cc2)cc1 | -2
Cc1nc(-c2ccccc2)cc(N2CCCC2)n1 | -3.26
O=C(Nc1ccncc1)c1cccc(COc2ccc3ccccc3c2)c1 | -3.13
O=C(NCCc1ccccc1)C1CCN(S(=O)(=O)c2ccc3[nH]c(-c4ccccc4)nc3c2)CC1 | -1.97
Cc1nn(C)c2c1c(-c1ccccc1)cc(=O)n2Cc1cc(=O)n2ccccc2n1 | -0.795
O=C(NCCC1=CCCCC1)C1CCN(S(=O)(=O)c2ccc(Br)s2)CC1 | -4.53
Clc1cccc(CCNC2CCN(Cc3ccccc3)CC2)c1 | -2.91
COc1ccc(-c2c(C)nn3c(-c4cccs4)cc(C(F)(F)F)nc23)cc1 | 3.61
Cc1nn(C)cc1CN(C)C(=O)c1cc2nc(-c3ccc4c(c3)OCO4)cc(C(F)(F)F)n2n1 | -0.519
O=C(Cc1cccs1)NC1CCCCCC1 | -4.39
CCCN1C(=O)c2oc3cc(C)cc(C)c3c(=O)c2C1c1ccccc1F (centres unmarked) | 0.00706
NS(=O)(=O)c1ccc(Cc2ccc(S(N)(=O)=O)cc2)cc1 | 0.774
CCOc1ccc(-c2cc(C(=O)N3CCC4(CC3)OCCO4)c3ccccc3n2)cc1 | -2.26
COc1ccc2cc(-c3nc4cccnc4[nH]3)c(=O)oc2c1 | -2.41
COc1ccc2c(CNCCc3ccccc3Cl)c(C(=O)O)[nH]c2c1 | -0.397
Cc1nn2c3ccccc3nc2c2ccccc12 | 5.3
Fc1ccccc1N1CCN(Cc2ccc(C(F)(F)F)cc2)CC1 | 2.23
C=CCC(C=C)S(=O)(=O)c1ccc(C)cc1 (centres unmarked) | 1.03
Cc1nnc(SCC(=O)NCCc2cccs2)c2nn(-c3ccccc3)c(C)c12 | 1.55
Cc1ccccc1NC(=O)C1CC=CCC1C(=O)O (centres unmarked) | 2.22
COc1ccc(S(=O)(=O)N2CCN(c3ccccc3)CC2)cc1Br | -6.36
